Measurements reported in the RNAGym collection of RNA variant scans (doi:10.1073/pnas.2313332121).
This sample is rich in variants without activity.

B1: TPR 5TU (parent)
chain: GGAUCUUCUCGAUCUAACAAAAAAGACAAAUCUGCCACAAAGCUUGAGAGCAUCUUCGGAUGCAGAGGCGGCAGCCUUCGGUGGCGCGAUAGCGCCAACGUUCUCAACUAUGACACGCAAAACGCGUGCUCCGUUGAAUGGAGUUUAUCAUG

Variants of: B1
Experiment: polymerase ribozyme fitness, log enrichment relative to wild type (log ratio); higher = more active; in vitro selection for triplet polymerase activity
Procedure, shortened: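 After PCR construction and transcription, each subunit's mutant library from a heterodimeric triplet polymerase ribozyme was annealed with a biotinylated primer, the partner subunit and triplets. Incubation was frozen, at −7 °C, and extended constructs were gel-excised, bound to streptavidin beads and amplified by RT-PCR, in one selection round done in triplicate. Fitness is the logarithm of a genotype's enrichment divided by that of the wild type, from inverse-variance-weighted replicate averages of Illumina-sequenced inputs and outputs. The base of the logarithm is 2, and genotypes needed ≥10 input reads and ≥1 read per output.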

| Variant | polymerase ribozyme fitness (log ratio) |
| --- | --- |
| GGAUCUUCUCGAUCUAACUAAAAAGACAAAUCUGCCACAAAGCUUGAAAGCAUCUUCGGAGGCAGAGGCGGCAGCCUUCGGUGGCGCGAUAGCGCCAACGUUCUCAACUAUGACACGCAAGACACGUGCUCCGUUGACUGGAGUUUAUCAUG [A19U G48A U61G A121G G124A A138C] | ≤ -4.2 |
| GGAUCUUCUCGAUCUAACUAAAAAGACAAAUCUGCCACAAAGCUUGAGAGCAUCUUCGGAUGCAGAGGCGGCAGCCUUCGGUGGCGCGAUAGUGACAACUUUCUCAACUAUGCCACGCAAAACGCGUGCUCCGUUGAAUGGAGUUUAUCAUG [A19U C93U C95A G100U A113C] | ≤ -4.2 |
| GGAUCUUCUCGAUCUAACUAAAAAGACAAAUCUGCCACAAAGCUUGAGAGCAUCUUCAGAUGCAGAGGCGGCAGCCUUCGGUAGCGCGAUAGCGCCAACGUUCUCAACUAUGACACGCAAAACGCGUGCUCCGUUGAAAGGUGUUUAUCAUG [A19U G58A G83A U139A A142U] | ≤ -4.2 |
| GGAUCUUCUCGAUCUAACUAAAAAGACAAAUCUGCCACAAAGCUUGAGAGCAUCUUCGAAUGCAGAGGCGGCAGCCUUCGGUGGGACGAUAGCGCCAACGCUCUCAACUAUGACACGCAAAACGCGUGCUCCGUUGAAUGGAGUUUAUCAUG [A19U G59A C85G G86A U101C] | ≤ -4.2 |
| GGAUCUUCUCGAUCUAACUAAAAAGACAAAUCUGCCACAAAGCUUGAGAGCAUCUUGGGAUGCAGAGGCGGCAGCCUUCGGUGGCGCGAUAGCGCGAACGUUCUCAACUAUGACAGGCAAAACGCGUGCUCCGUUGAAUGGAGUUUAUCAUG [A19U C57G C96G C116G] | -0.687 |
| GGAUCUUCUCGAUCUAACUAAAAAGACAAAUCUGCCACAAAGCUUGAGAGCAUCUUCGGAUGCAGAGGAGGCAGCCUUCGGUGGCGCGAUAUCGCCAACGUUCGCAAGUAUGACACGUAAAAGGCGUGCUCCGUUGAAAGGAGUUUAUCAUG [A19U C69A G92U U104G C108G C118U C123G U139A] | ≤ -4.2 |
| GGAUCUUCUCGAUCUAACUAAAAAGACAAAUCUGCCACAAAGCUUGAGAGCAUCUUCGGAUGCAGAGGCGGCAGCCUUCGGUGGCGCCAUAGCGCCAACGUUCUCAACUAUGACACGCAAAACGCGUGCUCCGUUGAAUGGAGUUUAUCAUG [A19U G88C] | ≤ -4.2 |
| GGAUCUUCUCGAUCUAACUAAAAAGACAAAUCUGCCACAAAGCUUGAGAGCAUCUUCUGAUGCAGAGGCGGCAGCCUUCGGUGGCUCGAUAGCGUCAACGUUCUCAACUAUGACACGCAAAGCGCGUGCUCCGUUGAAUUUAGUUUAUCAUG [A19U G58U G86U C95U A122G G140U G141U] | ≤ -4.2 |
| GGAUCUUCUCGAUCUAACUAAAAAGACAAAUCUGCCACAAAGCUUGAGAGCAUCUUCGGAUGCAGAGGCGGCAGACUUCGGUGACGCGAUAGCGCCAACGUUCUCAACUAUGACACGCAAAACGCGUGCUCCGUUGAAUGGAGUUUAUCAUG [A19U C75A G84A] | ≤ -4.2 |
| GGAUCUUCUCGAUCUAACUAAAAAGACAAAUCUGCCACAAAGCUUGAGAGCAUCUUCCGAUGCAGAGGCGGCAGCCUUCGGUGGCGUGAUAGCGUCAACGUUCUCAACUAUGACAGGCAAAACGCGUGCUCCGUUGAAUGGAGUUUAUCAUG [A19U G58C C87U C95U C116G] | -1.52 |
| GGAUCUUCUCGAUCUAACUAAAAAGACAAAUCUGCCACAAAGCUUGAGAGCAUCUUCGGAUGCAGAGGCGGCAGCCUUCGGUGGCGCUAUAGAGCCAACGUUCUCAACUAUGACACGCAAAACGCGUGCUCCGUUGAAUGGAGUUUAUCAUG [A19U G88U C93A] | ≤ -4.2 |
| GGAUCUUCUCGAUCUAACUAAAAAAACAAAUCUGCCAGAAAGCUUGAGAGCAUCUUCGGAUGCAGACGCGGCAGCCUUCGGUGGCGCGAUAGCGCUAACGUUCUCAUAUCUGACACGCAAACCGCGUGCUCCGUUGAAUGGAGUUUAUCAUG [A19U G25A C38G G67C C96U A107U C108A A110C A122C] | ≤ -4.2 |
| GGAUCUUCUCGAUCUAACUAAAAAGACAAAUCUGCCACAAAGCUUGAGAGCAUCUUUGGAUUCAGAGGUGGCAGCCUUCGGUGGUGCGAUAGCGCCAAGGUUCUCAACUAUGACACGCAAAACGCGUGCCCCGUUUAAUGGAGUUGAUCAUG [A19U C57U G62U C69U C85U C99G U130C G136U U146G] | ≤ -4.2 |
| GGAUCUUCUCGAUCUAACUAAAAAGACAAAUCUGCCACAAAGCUUGAGAGCAUCUUCGGAUGCAGAGGCGGCAGACUUCGGUGGCGCGAUAGAGCCAACGUCAUCAACUAUGACACGCAAAACGCGUGCUCCGUUGAAUGGAGUUUAUCAUG [A19U C75A C93A U102C C103A] | ≤ -4.2 |
| GGAUCUUCUCGAUCUAACUAAAAAGACAAAUCUGCCACAAAGCUUGAGAGCAUCUUCGGAUGCAGAGGCGGCAGCCUUCAGUGGCGCGAUAGCGCCAACGUUCUCAACUAUGACACGCAAAACGCGUGCUCCGUUGAAUGGAGUUUAUCAUG [A19U G80A] | -0.164 |
| GGAUCUUCUCGAUCUAACUAAAAAGACAAAUCUGCCACAAAUCUUGAGAGCAUCUUCGGAUGCAGAGGCGGCAGCCUUCGGUGGCGCGAUAGCGCCAACGUUCUCAACUAUGGCACGCAAUACCCGUGCUCCGUUGAAUGGAGUUUAACAUG [A19U G42U A113G A121U G124C U148A] | ≤ -4.2 |
| GGAUCUUCUCGAUCUAACUAAAAAGACAAAUCUGCCACAAAGCUUGAGAGCAUCUUAGGCUGCAGAGGCGGCAGCCUUCGGUGGCGCGAUAGAGCCAACGUUCUCAACUAUGACACGCAAAACGCGUGCUCCGUUGAAUGGAGUUUAUCAUG [A19U C57A A60C C93A] | ≤ -4.2 |
| GGAUCUUCUCGAUCUAACUAAAAAGACAAAUCUGCCACAAAGCUUGAGAGCAUCUUCGGAUGCAGAGGCGUCAGCCUUCGGUCGCGCGAUAGCGCCAACGUUCUCAACUAUGACACGCAAAACGCGUGCUCCGUUGAAUGGAGUUGAUCAUG [A19U G71U G83C U146G] | ≤ -4.2 |
| GGAUCUUCUCGAUCUAACUAAAAAGACAAAUCUGCCACAAAGCUUAAGAGCAUCUUCGGAUGCAGAGGCGGCAGCCUUCGGUGGCGCGAUAGGGUCAACGUUCGCAACUAUGACACGCAAAACGCGUGCUCCGUUGAAUGGAGUUUAUCAUG [A19U G46A C93G C95U U104G] | ≤ -4.2 |
